Experimental data reported in PubChem BioAssay AID624296 (National Center for Advancing Translational Sciences (NCATS), 2012).
Hit rate of the full screen: of about 350,000 compounds, about 9,900 (2.8%) were called active. Inconclusive means that the source gave no clear call. Such entries were picked first, then a sample of the others. Calls come from the whole dose curve; as a rule, active = well fitted activation curve with a large enough effect; inconclusive = small, poorly fitted or top-dose-only effect; inactive = no such curve, though single readings can be large or run the other way. Potencies of inconclusive entries are left out as doubtful fits.

Assay: A quantitative high throughput screen for small molecules that induce DNA re-replication in MCF 10a normal breast cells. For activity, positive = re-replication: % of control where 0% means no effect. Note: nearly all actives have a fitted effect of over 50% in size.
Settings: MCF 10A DNA re-replication, Hoechst nuclear intensity, 48 h; activity, positive = re-replication: at 46.1 µM (top of the series)
Potency is the fitted concentration of half-maximal effect; tags give direction and shape of the fitted curve.

| SMILES | activity, positive = re-replication | Potency |
| --- | --- | --- |
| CSc1ccc(Cl)c(C(=O)NCCOc2cc(C)ccc2C(C)C)c1 | inactive: -8.04% | – |
| CC(C)OC(=O)c1c(NC(=O)c2ccco2)sc2c1CCCCC2 | – | active: 16.4 µM |
| CCCOc1ccc(C(F)(F)F)cc1NC(=O)CCc1c(C)noc1C | – | inconclusive [activator, single point] |
| COc1ccc(N2CCN(c3ncnc4scc(-c5ccc(F)cc5)c34)CC2)cc1 | – | inconclusive [activator, partial curve, poor fit] |
| CCOc1ccc(S(=O)(=O)n2cc(-c3ccc(F)cc3)c(N)n2)cc1 | inactive: 1.78% | – |
| COc1cccc(C(c2c(NC(=O)c3ccco3)sc(C)c2C)N2CCOCC2)c1 (stereo not drawn) | – | active: 20.6 µM |
| Cc1c(NC(=O)CSc2nnc3c4ccccc4n(CCc4ccccc4)c3n2)c(=O)n(-c2ccccc2)n1C | – | active: 8.2 µM |
| Cn1ncc(Cl)c1C(=O)Nc1cc(C(F)(F)F)ccc1F | – | inconclusive [activator, partial curve, poor fit] |
| O=C(CN1CCN(c2ccc(F)cc2)CC1)N1N=CCC1c1ccccc1 (stereo not drawn) | – | inconclusive [activator, single point] |
| CC1CCc2c(sc(NC(=O)C3c4ccccc4Oc4ccccc43)c2C(N)=O)C1 (stereo not drawn) | – | inconclusive [activator, full curve, poor fit] |
| CCOC(=O)c1cc(-c2ccccc2)nn1Cc1cc(C)no1 | – | inconclusive [activator, single point] |
| COc1ccc(C(=O)NC2CCCc3c2cnn3-c2cccc(C)c2C)c(OC)n1 (stereo not drawn) | – | active: 18.4 µM |
| O=C(NC(Cc1c[nH]c2ccccc12)C(=O)N/N=C/c1ccc(Cl)cc1)c1cccs1 (stereo not drawn) | inactive: 6.33% | – |
| Fc1ccc2c(c1)C(c1ccncc1)=NNC(c1ccccc1)=N2 | inactive: -4.09% | – |
| O=S(=O)(c1ccc(Cl)cc1)N1CCC(N2CCCCCC2)CC1 | – | inconclusive [activator, full curve] |
| Cc1ccc(S(=O)(=O)N2CCC(C(=O)N3CCN(c4ccccn4)CC3)CC2)cc1 | – | inconclusive [activator, partial curve, poor fit] |
| Cc1cccc(N2CCN(C(=O)Cc3ccc(-n4c(=O)[nH]c5ccsc5c4=O)cc3)CC2)c1C | – | inconclusive [activator, partial curve] |
| COc1ccc(C(=O)/C=C/Nc2ccc(S(N)(=O)=O)cc2)cc1OC | – | inconclusive [activator, single point] |
| CCOC(=O)c1c(-c2ccccc2)csc1NC(=O)c1ccc(S(=O)(=O)N2CC(C)OC(C)C2)cc1 (stereo not drawn) | – | inconclusive [activator, partial curve, poor fit] |
| C[C@H](CO)N1C[C@H](C)[C@@H](CN(C)S(C)(=O)=O)Oc2c(NC(=O)c3ccncc3)cccc2C1=O | – | inconclusive [activator, single point] |
| Cc1nn(-c2ccccc2)c2sc(-c3n[nH]c(=S)o3)cc12 | – | inconclusive [activator, single point] |
| Cc1ccccc1C(=O)N1CCN(c2ccc(NC(=O)c3ccc4c(c3)OCCO4)cc2)CC1 | – | active: 16.4 µM |

| SMILES | activity, positive = re-replication | Potency |
| --- | --- | --- |
| Cc1cccc(N(CC(O)CN2CCCC2)S(=O)(=O)c2ccccc2)c1 (stereo not drawn) | inactive: 1.63% | – |
| COc1cc(/C=N\NC(=O)c2ccc(-c3ccccc3)cc2)cc(Br)c1O | – | inconclusive [activator, single point] |
| O=C(Cc1csc(Nc2nc(=S)[nH]c3ccccc23)n1)N1CCN(c2cccc(C(F)(F)F)c2)CC1 | – | inconclusive [activator, full curve, poor fit] |
| COc1nc(Nc2cccc(C)c2)nc(N2CCCCC2)n1 | – | inconclusive [activator, single point] |
| O=c1[nH]cc(S(=O)(=O)NCc2ccccc2)c(=O)[nH]1 | inactive: 0.277% | – |
| CN(C)c1ncnc2c1ncn2-c1ccccc1 | inactive: -0.443% | – |
| COC(=O)c1cn(C(=O)c2ccc(OC)c(OC)c2)c2ccccc12 | inactive: -5.08% | – |
| CC1(C)CC(=O)C(C2C3=C(CC(C)(C)CC3=O)Oc3ccc4ccccc4c32)C(=O)C1 (stereo not drawn) | – | inconclusive [activator, single point] |
| COC(=O)CCC(C)N1CCC(Oc2ccc(C(=O)NCc3ccccn3)cc2)CC1 (stereo not drawn) | – | inconclusive [activator, partial curve, poor fit] |
| Cc1ccc(NC(=O)c2ccccc2F)cc1S(=O)(=O)N1CCCCCC1 | inactive: -0.799% | – |
| C=CCNC(=O)C(=O)NCCOc1ccccc1Cl | – | inconclusive [activator, full curve, poor fit] |
| CC[n+]1ccc(/C=C/c2c[nH]c3ccccc23)cc1 | – | inconclusive [activator, full curve, poor fit] |
| O=C(/C=C/c1ccccc1Br)c1ccc2c(c1)OCO2 | – | inconclusive [activator, single point] |
| CC1(C)CC(C(CC(=O)O)c2ccccc2)CCO1 (stereo not drawn) | inactive: -5.52% | – |
| COc1cc(NC(=O)COc2ccc(C)c(C)c2)ccc1NC(=O)c1ccco1 | – | inconclusive [activator, single point] |
| Cc1nc2c(-c3ccc(F)cc3)c(C)nn2c(C)c1CCC(=O)NCc1ccco1 | – | inconclusive [activator, single point] |
| CCCCOc1ccc(C(=O)NCC(=O)NCCCn2nc(C)cc2C)cc1 | inactive: 0.768% | – |
| Cc1ccc(C(=O)Nc2ccc(C(=O)N/N=C/c3c[nH]c4ccccc34)cc2)cc1 | – | inconclusive [activator, single point] |
| Cn1c(CSc2nnc(SCc3ccccc3)s2)nc2ccccc21 | inactive: 6.04% | – |
| CC(C)c1ccc(N(C(=O)c2snc(C(N)=O)c2N)C(C(=O)NC2CCCC2)c2ccncc2)cc1 (stereo not drawn) | – | inconclusive [activator, single point] |
| CC(=O)N(Cc1cc2c(C)cc(C)cc2[nH]c1=O)C1CCCCC1 | – | inconclusive [activator, full curve, poor fit] |
